We go through eleven molecules from patent publication US20240076343A1.

What all share (experiment): cell-based or functional assay
Assay [1] deals with high-affinity hIL-2 receptor (IL-2Rαβγ) on NK-92 cells (human) (UniProt P01589).
For assay [2], the target named is intermediate affinity hIL-2 receptor complex (IL-2Rβγ) on TF1+IL-2Rβ cells (human) (UniProt P14784).
Assay [3] has as its target intermediate affinity hIL-2 receptor complex (IL-2Rβγ) (human) (UniProt P14784).
The target in assay [4] is intermediate affinity hIL-2 receptor (hIL-2Rβγ) on TF1+IL-2Rβ cells (human) (UniProt P14784).
Assay [5] concerns the target high-affinity hIL-2 receptor (IL-2Rαβγ) (human) (UniProt P01589).

B1: 1H3-hIgG1-L6-hIL-2 (E15A) (protein)
heavy: EVQLVESGGGLVQPGRSLKLSCAVSGFTFSDYAMAWVRQAPKKGLEWVATISYDGSRTYYRDSVKGRFTISRDNAKITLYLQMDSLRSEDTATYYCARHGSGYFDYWGQGVMVTVSS[not shown - about 450 residues with a human IgG1 Fc and changes]
light: DTVLTQSPALAVSPGERVTISCRASESVRTGVHWYQQKPGQQPKLLIYGASNLESGVPARFSGSGSGTDFTLTIDPVEADDTATYFCQQSWNDPFTFGSGTKLEIKRTVAAPSVFIFPPSDEQLKSGTASVVCLLNNFYPREAKVQWKVDNALQSGNSQESVTEQDSKDSTYSLSSTLTLSKADYEKHKVYACEVTHQGLSSPVTKSFNRGEC
Consider B1, for which, in assay [1], the Fold change from hIL-2 (NK-92) amounted to 1 fold. The Fold change from hIL-2 (TF1 + IL-2Rβ) in assay [2] was 1 fold.

B2: 1H3-hIgG1-L6-hIL-2 (E15K) (protein)
heavy: EVQLVESGGGLVQPGRSLKLSCAVSGFTFSDYAMAWVRQAPKKGLEWVATISYDGSRTYYRDSVKGRFTISRDNAKITLYLQMDSLRSEDTATYYCARHGSGYFDYWGQGVMVTVSS[not shown - about 450 residues with a human IgG1 Fc and changes]
light: B1 light
In turn, B2 displayed a Fold change from hIL-2 (NK-92) in assay [1] of 1 fold. Besides, in assay [2], the Fold change from hIL-2 (TF1 + IL-2Rβ) amounted to 1 fold.

B3: 1H3-hIgG1-L6-hIL-2 (R38E/I92P) (protein)
heavy: EVQLVESGGGLVQPGRSLKLSCAVSGFTFSDYAMAWVRQAPKKGLEWVATISYDGSRTYYRDSVKGRFTISRDNAKITLYLQMDSLRSEDTATYYCARHGSGYFDYWGQGVMVTVSS[not shown - about 450 residues with a human IgG1 Fc and changes]
light: B1 light
Turning to B3, in assay [3], the Fold change from hIL-2 (TF1 + IL-2Rβ), pSTAT5 fixed conc. was found to be 5 fold. In addition, the Fold change from rhIL-2 (NK-92) in assay [1] is > 10000 fold. For the same molecule, the Fold change from rhIL-2 (TF1 + IL-2Rβ) in assay [4] was > 10000 fold. Moreover, in assay [5], the Fold change from hIL-2 (NK-92), pSTAT5 fixed conc. worked out at 24 fold.

B4: 1H3-hIgG1-L6-hIL-2 (R38E/D20S) (protein)
heavy: EVQLVESGGGLVQPGRSLKLSCAVSGFTFSDYAMAWVRQAPKKGLEWVATISYDGSRTYYRDSVKGRFTISRDNAKITLYLQMDSLRSEDTATYYCARHGSGYFDYWGQGVMVTVSS[not shown - about 450 residues with a human IgG1 Fc and changes]
light: B1 light
Take B4: in assay [3], the Fold change from hIL-2 (TF1 + IL-2Rβ), pSTAT5 fixed conc. stood at 3 fold and the Fold change from rhIL-2 (TF1 + IL-2Rβ), pSTAT5 titration amounted to 25 fold. Further, in assay [1], the Agonistic Activity (NK-92) is 50% and the Fold change from rhIL-2 (NK-92) was > 10000 fold. For the same molecule, the Fold change from rhIL-2 (TF1 + IL-2Rβ) in assay [4] came out at 626 fold. Besides, in assay [5], the Fold change from hIL-2 (NK-92), pSTAT5 fixed conc. was 17 fold and the Fold change from rhIL-2 (NK-92), pSTAT5 titration is > 10000 fold.

B5: 1H3-hIgG1-L6-hIL-2 (F42A/N88R) (protein)
heavy: EVQLVESGGGLVQPGRSLKLSCAVSGFTFSDYAMAWVRQAPKKGLEWVATISYDGSRTYYRDSVKGRFTISRDNAKITLYLQMDSLRSEDTATYYCARHGSGYFDYWGQGVMVTVSS[not shown - about 450 residues with a human IgG1 Fc and changes]
light: B1 light
For the molecule B5, in assay [3], the Fold change from hIL-2 (TF1 + IL-2Rβ), pSTAT5 fixed conc. is 3 fold and the Fold change from rhIL-2 (TF1 + IL-2Rβ), pSTAT5 titration was determined as 34 fold. In assay [1], this molecule displayed an Agonistic Activity (NK-92) of 70% and a Fold change from rhIL-2 (NK-92) of 8350 fold. Further, the Fold change from rhIL-2 (TF1 + IL-2Rβ) in assay [4] amounted to 1460 fold. In assay [5], the Fold change from hIL-2 (NK-92), pSTAT5 fixed conc. turned out to be 18 fold and the Fold change from rhIL-2 (NK-92), pSTAT5 titration is > 10000 fold.

B6: 1H3-hIgG1-L6-hIL-2 (F42D/D20A) (protein)
heavy: EVQLVESGGGLVQPGRSLKLSCAVSGFTFSDYAMAWVRQAPKKGLEWVATISYDGSRTYYRDSVKGRFTISRDNAKITLYLQMDSLRSEDTATYYCARHGSGYFDYWGQGVMVTVSS[not shown - about 450 residues with a human IgG1 Fc and changes]
light: B1 light
In the case of B6, the Fold change from hIL-2 (TF1 + IL-2Rβ) in assay [2] came to 3 fold.

B7: 1H3-hIgG1-L6-hIL-2 (I92D/F42T) (protein)
heavy: EVQLVESGGGLVQPGRSLKLSCAVSGFTFSDYAMAWVRQAPKKGLEWVATISYDGSRTYYRDSVKGRFTISRDNAKITLYLQMDSLRSEDTATYYCARHGSGYFDYWGQGVMVTVSS[not shown - about 450 residues with a human IgG1 Fc and changes]
light: B1 light
For the molecule B7, in assay [3], the Fold change from hIL-2 (TF1 + IL-2Rβ), pSTAT5 fixed conc. came out at 3 fold and the Fold change from rhIL-2 (TF1 + IL-2Rβ), pSTAT5 titration was > 10000 fold. For the same molecule, in assay [1], the Agonistic Activity (NK-92) was determined as 40% and the Fold change from rhIL-2 (NK-92) was > 10000 fold. The Fold change from rhIL-2 (TF1 + IL-2Rβ) in assay [4] was determined as 1070 fold. In addition, in assay [5], the Fold change from hIL-2 (NK-92), pSTAT5 fixed conc. turned out to be 28 fold and the Fold change from rhIL-2 (NK-92), pSTAT5 titration is > 10000 fold.

B8: 1H3-hIgG1-L6-hIL-2 (I92D/Y45M) (protein)
heavy: EVQLVESGGGLVQPGRSLKLSCAVSGFTFSDYAMAWVRQAPKKGLEWVATISYDGSRTYYRDSVKGRFTISRDNAKITLYLQMDSLRSEDTATYYCARHGSGYFDYWGQGVMVTVSS[not shown - about 450 residues with a human IgG1 Fc and changes]
light: B1 light
For the molecule B8, the Fold change from hIL-2 (TF1 + IL-2Rβ), pSTAT5 fixed conc. in assay [3] was 3 fold. Also, in assay [1], the Fold change from rhIL-2 (NK-92) was determined as 7 fold. The Fold change from rhIL-2 (TF1 + IL-2Rβ) in assay [4] amounted to 146 fold. This molecule also showed a Fold change from hIL-2 (NK-92), pSTAT5 fixed conc. in assay [5] of 14 fold.

B9: 1H3-hIgG1-L6-hIL-2 (F42A/N88D) (protein)
heavy: EVQLVESGGGLVQPGRSLKLSCAVSGFTFSDYAMAWVRQAPKKGLEWVATISYDGSRTYYRDSVKGRFTISRDNAKITLYLQMDSLRSEDTATYYCARHGSGYFDYWGQGVMVTVSS[not shown - about 450 residues with a human IgG1 Fc and changes]
light: B1 light
In the case of B9, the Fold change from hIL-2 (TF1 + IL-2Rβ), pSTAT5 fixed conc. in assay [3] was 3 fold. Moreover, the Fold change from rhIL-2 (NK-92) in assay [1] came out at 1970 fold. Further, in assay [4], the Fold change from rhIL-2 (TF1 + IL-2Rβ) is 86 fold. This molecule registered a Fold change from hIL-2 (NK-92), pSTAT5 fixed conc. in assay [5] of 18 fold.

B10: 1H3-hIgG1-L6-hIL-2 (E15R) (protein)
heavy: EVQLVESGGGLVQPGRSLKLSCAVSGFTFSDYAMAWVRQAPKKGLEWVATISYDGSRTYYRDSVKGRFTISRDNAKITLYLQMDSLRSEDTATYYCARHGSGYFDYWGQGVMVTVSS[not shown - about 450 residues with a human IgG1 Fc and changes]
light: B1 light
For the molecule B10, in assay [1], the Fold change from hIL-2 (NK-92) is 1 fold. Moreover, the Fold change from hIL-2 (TF1 + IL-2Rβ) in assay [2] was 1 fold.

B11: 1H3-hIgG1-L6-hIL-2 (I92D/F42W) (protein)
heavy: EVQLVESGGGLVQPGRSLKLSCAVSGFTFSDYAMAWVRQAPKKGLEWVATISYDGSRTYYRDSVKGRFTISRDNAKITLYLQMDSLRSEDTATYYCARHGSGYFDYWGQGVMVTVSS[not shown - about 450 residues with a human IgG1 Fc and changes]
light: B1 light
Consider B11, for which the Fold change from hIL-2 (TF1 + IL-2Rβ), pSTAT5 fixed conc. in assay [3] was found to be 4 fold. In assay [1], this molecule came in with a Fold change from rhIL-2 (NK-92) of 405 fold. Also, the Fold change from rhIL-2 (TF1 + IL-2Rβ) in assay [4] amounted to 3950 fold. The same molecule came in with a Fold change from hIL-2 (NK-92), pSTAT5 fixed conc. in assay [5] of 18 fold.
